“And” between values parts separate entries of the source, which are not always exact repeats. Equal values may be shown once. The campaign covered roughly 420,000 compounds. About 50,000 (12%) were called active. Inconclusive results, whose numbers are uncertain, are shown with a selection of clear calls. The call rests on the fitted dose curve; in most records, active means well fitted inhibition curve with a large enough effect; inconclusive means small, poorly fitted or top-dose-only effect; inactive means flat fitted curve, though single readings scatter. Potencies beside an inconclusive call are fits to weak or partial responses and may not hold up.
test: qHTS for Inhibitors of human tyrosyl-DNA phosphodiesterase 1 (TDP1): qHTS in cells in presence of CPT; conditions: chicken DT40 Tdp1-/-;hTDP1 cells + 20 nM CPT, ATP luminescence, 48 h; activity change, negative = growth inhibition: at 46.2 µM (top of the series) unless noted; further: nearly all actives have a fitted effect of over 55% in size
How it was run: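 Cell growth measured by CellTiter-Glo luminescence after a minimum 48 h, 37 C compound exposure with 20 nM CPT in Tdp1-knockout DT40 cells stably expressing hTDP1, seeded 400/well; qHTS titration format.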
On the % scale 0 is the no-effect control and ±100 the full control effect; potency means the concentration at half of the fitted maximal effect; tags describe the fitted curve by direction and shape.

Structure (SMILES)	Potency	activity change, negative = growth inhibition
CCn1nc(C)c2c(-c3ccccc3)cc(=O)n(C(C)C(=O)Nc3ccc(OC)c(OC)c3)c21 (configuration not stated)	active: 10.3 µM	–
CC[N+](C)(C)CCN(Cc1ccc(Cl)cc1)c1ccccn1	active: 18.4 µM	–
CCOC(CNCc1cc(C)c2[nH]c3ccccc3c2c1C)OCC	active: 16.4 µM	–
CCn1c(=O)c(C(=O)CN2c3ccccc3CC2C)c(N)n(Cc2ccccc2)c1=O (configuration not stated)	inconclusive: 18.4 µM [inhibitor, single point]	–
CC1(C)C2CCC(C2)C1(C)NC(=O)CN1CCN(Cc2ccccc2)CC1 (configuration not stated)	inconclusive: 29.1 µM [inhibitor, single point]	–
CCn1c(=NC(=O)CSC(C)=O)sc2ccccc21	active: 20.6 µM	–
COC(=O)c1c(C(=O)OC)c(-c2ccc(Cl)cc2)n2c1CS(=O)(=O)C2	active: 20.6 µM	–
Cc1ccc(C)c(NC(=O)Cn2ncc3c(C)n(Cc4ccc(F)cc4)c(C)c3c2=O)c1	inconclusive: 29.1 µM [inhibitor, single point]	–
Cc1cccc(S(=O)(=O)Nc2cccc3c2C(=O)c2ccccc2-3)c1	inconclusive: 0.731 µM [inhibitor, full curve]	–
CCCCN1Cc2cc(C(=O)c3cc(F)ccc3O)cnc2NC1=O	inconclusive: 16.4 µM [inhibitor, partial curve, poor fit]	–
O=C(NC1CC1)c1cccc(NC(=O)C2CCCCC2)c1	inactive	–
CS(=O)(=O)N1N=C(c2ccc(Br)cc2)CC1c1ccc2c(c1)OCO2 (configuration not stated)	inconclusive: 23.1 µM [inhibitor, single point]	–
CCCCCCc1c(C)c2c(cc(C)c3c(C)coc32)oc1=O	inconclusive: 20.6 µM [inhibitor, single point]	–
CCS(=O)c1ccccc1C(=O)OCC(=O)N1CCC(c2ccccc2)=N1 (configuration not stated)	inconclusive: 23.1 µM [inhibitor, single point]	–
O=C(Nc1cccnc1)Nc1cccc([N+](=O)[O-])c1	inconclusive: 29.1 µM [inhibitor, single point]	–
COc1ccc(CCC(C)NCC(C)c2ccccc2)cc1 (configuration not stated)	inconclusive: 18.4 µM [inhibitor, partial curve]	–
CC(CN1CCC(n2nccc2NC(=O)CCCc2ccccc2)CC1)c1ccccc1 (configuration not stated)	inconclusive: 18.4 µM [inhibitor, single point]	–
O=C(NC(O)C(=O)c1ccc(F)cc1)c1ccc(F)cc1 (configuration not stated)	inconclusive: 14.6 µM [inhibitor, single point]	–
COc1ccc(-c2coc3ccc(OC4OC(COC(C)=O)C(OC(C)=O)C(OC(C)=O)C4OC(C)=O)cc3c2=O)cc1 (configuration not stated)	active: 2.66 µM	–
O=C(COC(=O)/C=C/c1ccco1)Nc1cccc([N+](=O)[O-])c1	inactive	–
COc1ccc(C(=O)Nc2ccc(O)c3ccccc23)cc1OC	inconclusive: 29.1 µM [inhibitor, single point]	–
CC1=C(c2ccc(C)c(C)c2)S(=O)(=O)N(Cc2ccc(C(=O)NCc3ccccc3F)cc2)C1=O	inconclusive: 20.6 µM [inhibitor, partial curve]	–
Cc1c(O)c(C)c2c(c1O)C(=O)C[C@@H](c1ccccc1)O2	inconclusive: 29.1 µM [inhibitor, single point]	–

Structure (SMILES)	Potency	activity change, negative = growth inhibition
COC(=O)c1ccc(CSc2nc3c(c(=O)n2-c2ccc(C)cc2)SCC3)o1	inconclusive: 20.6 µM [inhibitor, single point]	–
COc1ccccc1CNc1cc(-c2ccc(C(=O)N(C)C)cc2)ncn1	inactive	–
Nc1ccc(C=Cc2ccc(N)cc2)cc1	active: 20.6 µM	–
Cc1cc(C)n(S(=O)(=O)c2ccccc2[N+](=O)[O-])n1	inconclusive: 2.91 µM [inhibitor, partial curve]	–
O=C(COc1ccccc1Cl)NCCCNC(=O)c1cccnc1	inconclusive: 14.6 µM [inhibitor, single point]	–
O=C1CCN(CCc2ccccc2)CCN1CCSc1ccccc1	inconclusive: 35.5 µM [inhibitor, single point] and inconclusive: 29.1 µM [inhibitor, single point]	–
O=C(N/N=C/c1ccncc1)c1nc(-c2ccccc2)n2c1CCCCC2	active: 7.31 µM	–
CC(=O)c1c(C)[nH]c(C(=O)COC(=O)c2cc(C)oc2C)c1C	inconclusive: 32.6 µM [inhibitor, partial curve, poor fit]	–
Cc1nc(CCNC(=O)C2CCC(=O)N(Cc3cccc(F)c3)C2)sc1C (configuration not stated)	inactive	–
Cc1ccccc1CN1CCN(S(=O)(=O)c2ccc(Cl)s2)CC1	active: 23.1 µM	–
Cn1c(-c2c(N)n(CCCc3ccccc3)c3nc4ccccc4nc23)nc2ccccc21	inconclusive: 25.9 µM [inhibitor, single point]	–
O=C(NCc1ccc2c(c1)OCO2)c1ccc(C2SCC(=O)N2Cc2ccco2)cc1 (configuration not stated)	inconclusive: 23.1 µM [inhibitor, single point]	–
CCOc1ccc(-c2nc(CN3CCCCC3CCn3cccn3)c(C)o2)cc1 (configuration not stated)	inconclusive: 29.1 µM [inhibitor, single point]	–
COc1ccc(N(C(=O)CNC(=O)c2ccco2)C(C(=O)NC2CCCC2)c2ccco2)cc1 (configuration not stated)	inactive	–
N#C/C(=C\c1ccc(Cl)cc1)c1nc2ccccc2o1	inconclusive: 9.2 µM [inhibitor, partial curve]	–
O=C(CCN1C(=O)c2ccccc2S1(=O)=O)Nc1ccccc1O	inactive	–
Cc1cc(C)nc(SC2CC(=O)N(c3ccc(Cl)cc3)C2=O)n1 (configuration not stated)	inconclusive: 20.6 µM [inhibitor, single point]	–
COc1ccc(NC(=O)CN(C)CC(=O)Nc2cccc(S(=O)(=O)N(C)c3ccccc3)c2)cc1	inconclusive: 16.4 µM [inhibitor, single point]	–
COc1cccc(C2CC(c3ccc(C)cc3)=NN2C(=O)c2ccccc2F)c1OC (configuration not stated)	inconclusive: 29.1 µM [inhibitor, single point]	–
O=C(CCNC(=O)C1CCN(S(=O)(=O)c2ccccc2)CC1)NCCc1ccc(Cl)cc1	inactive	–
Cc1ccc(C)c(NC(=O)c2ccccc2NS(=O)(=O)c2cc([N+](=O)[O-])ccc2C)c1	active: 3.26 µM	–
CCN(C(=O)COC(=O)c1ccc(Br)o1)C1CCCCC1	inactive	–
CC1(C)C(=O)CC[C@]2(C)C3C(=O)C=C4[C@H]5C[C@@](C)(C(=O)O)CC[C@]5(C)CC[C@]4(C)[C@]3(C)CC[C@@H]12 (some centres not stated)	inactive	–

Structure (SMILES)	Potency	activity change, negative = growth inhibition
NS(=O)(=O)c1ccc(NC(=O)CN2C(=O)C3C4C=CC(C4)C3C2=O)cc1 (configuration not stated)	inactive	–
Cc1ccc(N2CCN(C(=O)c3cc(C(=O)c4ccccc4C)c[nH]3)CC2)c(C)c1	inconclusive: 29.1 µM [inhibitor, single point]	–
Cn1ncc2c(=S)nc(Cl)[nH]c21	inconclusive: 25.9 µM [inhibitor, single point]	–
COc1cc(CNc2ccc(O)cc2)cc(Br)c1OCc1ccccc1	inconclusive: 29.1 µM [inhibitor, single point]	–
c1ccc(CC2CCN(C3=Nc4cccc5cccc3c45)CC2)cc1	inconclusive: 16.4 µM [inhibitor, single point]	–
CCN1CCc2c(C#N)c(N3CCCCC3)nc(NCc3ccccc3)c2C1	active: 20.6 µM	–
CC(=NC1CCCC1)c1c(C)[nH]n(-c2nc3ccccc3s2)c1=O	inconclusive: 13 µM [inhibitor, partial curve]	–
CCOc1ccc(NC(=O)NCCN2CCN(c3cc(Cl)ccc3C)CC2)cc1	active: 20.6 µM	–
Cc1cc(NC(=O)c2ccc(F)c(S(=O)(=O)N3CCCCC3)c2)no1	inactive	–
CCCN1CCN(S(=O)(=O)c2ccc3c(c2)NC(=O)C(C)S3)CC1 (configuration not stated)	inconclusive: 11.6 µM [inhibitor, partial curve]	–
CCOC(=O)c1c(Nc2ccc(C)c(C)c2)nnc(-c2ccccc2)c1-c1ccccc1	inconclusive: 20.6 µM [inhibitor, single point]	–
COc1cccc2sc(N(CCCN(C)C)C(=O)c3ccc(S(=O)(=O)N4CCc5ccccc5C4)cc3)nc12	active: 14.6 µM	–
COCC(=O)N(C)C[C@@H]1Oc2cc(-c3ccc(F)cc3)ccc2S(=O)(=O)N([C@H](C)CO)C[C@H]1C	inconclusive: 29.1 µM [inhibitor, single point]	–
CCC1CCCCN1CCCNC(=O)c1ccc2c(c1)c(C)c(C)n2CC (configuration not stated)	inconclusive: 29.1 µM [inhibitor, single point]	–
Cc1ccc(C)c(OCC(=O)Nc2sc3c(c2C#N)CCCC3)c1C	inconclusive: 25.9 µM [inhibitor, single point]	–
CC(=O)NC(C)(c1ccccc1)c1nc(/C=C/c2ccccc2)cs1 (configuration not stated)	inconclusive: 25.9 µM [inhibitor, single point]	–
O=C(Nc1nc(-c2ccc(F)cc2)cs1)C1CCCO1 (configuration not stated)	inconclusive: 18.4 µM [inhibitor, single point]	–
Cc1ccccc1-c1nnc(SCc2ccc(F)cc2)o1	–	inconclusive: -32.7% [inhibitor]
CC(C)(C)N1CC(C(=O)Nc2ccc(S(=O)(=O)N3CCCCC3)cc2)CC1=O (configuration not stated)	inconclusive: 0.651 µM [inhibitor, full curve, poor fit]	–
COc1cccc(-c2nc(NCc3ccccc3)c3ccccc3n2)c1	inconclusive: 20.6 µM [inhibitor, single point]	–
Cc1cc(C)c(NC(=O)Cn2c(=O)n(CCC(C)C)c(=O)c3cccnc32)c(C)c1	inconclusive: 5.8 µM [inhibitor, full curve]	–

— PubChem BioAssay AID686979 (National Center for Advancing Translational Sciences (NCATS), 2013)
